Measured values: PubChem BioAssay AID1508642 (National Center for Advancing Translational Sciences (NCATS), 2021)
Screen size: about 43,000 compounds; about 200 (0.47%) were called active. Inconclusive results (about 12%) are left out. The call rests on the fitted dose curve; in most records, active means well fitted cell-killing curve with a large enough effect; inconclusive means small, poorly fitted or top-dose-only effect, or effect the other way; inactive means flat fitted curve, though single readings scatter. The list shows a part of the results.

Assay: Cell viability qHTS assay in S16 Pmp22-F2sN cells; further: nearly all actives have a fitted effect of over 65% in size
Conditions: S16 Pmp22-F2sN Schwann cells (luciferase reporters placed in the Pmp22 gene) viability, CellTiter-Glo, 24 h; series mostly up to 57.5 µM; activity change, negative = cytotoxicity: at the top concentration
How it was run: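 S16 Schwann cells carrying the Pmp22-F2sN reporter, seeded in 1536-well format, were exposed to library compounds for 24 h at 37C. Viability was read as CellTiter-Glo luminescence after 15 min at room temperature.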
On the % scale 0 is the no-effect control and ±100 the full control effect; potency means the concentration at half of the fitted maximal effect.

SMILES | activity change, negative = cytotoxicity | Potency
COc1ccc(CCN2C(=O)c3oc4cc(C)cc(C)c4c(=O)c3C2c2ccccc2F)cc1OC (stereo unspecified) | inactive: 3.68% | –
COc1cccc(-c2nnc(SCC(=O)NC3CCCCC3)o2)c1 | inactive: -1.23% | –
CCOc1ccc(CCNC(=O)C2CCN(C(=O)c3cc4sccc4n3CC)CC2)cc1OCC | inactive: -13.6% | –
Cc1ccc(NC(=O)c2ccc(CN3C(=O)CCn4nc(C)cc43)cc2)c(Cl)c1 | inactive: -10.3% | –
CC(=O)c1ccc(NS(=O)(=O)c2ccc(-c3cc(C)no3)s2)cc1 | inactive: -4.73% | –
O=C(COc1ccccc1F)Nc1nnc(SCc2cc(=O)c3ccccc3[nH]2)s1 | inactive: 0.453% | –
Cc1cccc(CSc2nc(-c3cccs3)ccc2C#N)c1 | inactive: 9.91% | –
COc1ccc(NC(=O)C2CCCN(S(=O)(=O)c3ccc4c(c3)oc(=O)n4C)C2)c(OC)c1 (stereo unspecified) | inactive: 1.24% | –
Cc1c(NC(=O)c2cc(=O)c3ccccc3o2)c(=O)n(-c2ccccc2)n1C | inactive: -0.682% | –
Cc1coc2c(C)c3oc(=O)c(CC(=O)NCCc4ccc(Cl)cc4)c(C)c3cc12 | inactive: 17.9% | –
COc1cccc(N2CCN(C(=O)c3cccn3-c3nnc(N4CCCC4)s3)CC2)c1 | inactive: 0.217% | –
COCCCNC(=O)c1ccc(-n2c(-c3ccccc3)cc3c2CCC(C)C3)cc1 (stereo unspecified) | inactive: 7.58% | –
COc1ccc(CCNC(=O)Cc2c(C)c3c(cc(C)c4c(C)c(C)oc43)oc2=O)cc1 | inactive: 20.1% | –
Cc1ccc(CSc2oc(-c3cccs3)nc2S(=O)(=O)c2ccccc2)cc1 | inactive: 2.52% | –
COc1ccccc1N1CCN(c2ncc3c(n2)CCN(Cc2ccccc2F)C3)CC1 | inactive: -3.17% | –
CC(=O)c1ccc(N2CCN(c3ncnc4c3nc3n4CCCC3)CC2)cc1 | inactive: -11.2% | –
CCc1ccc(OCC(=O)N(Cc2ccc(C)o2)C2CCS(=O)(=O)C2)cc1 (stereo unspecified) | inactive: -3.8% | –
COc1ccc(CCNC(=O)c2cnn(-c3ccc(F)cc3)c2C2CCN(C(=O)OC(C)(C)C)CC2)c(OC)c1 | inactive: -5.84% | –
CCc1ccccc1NC(=O)N1CCc2c([nH]c3ccccc23)C1c1ccc(C)cc1 (stereo unspecified) | inactive: -11% | –
CCOC(=O)N1CCc2c(sc3c2c(=O)n(Cc2ccccc2)c(=O)n3Cc2ccccc2Cl)C1 | inactive: 12.5% | –
Cc1ccc2ncc(C(=O)N3CCN(c4ccccc4F)CC3)c(=O)n2c1 | inactive: 7.6% | –

SMILES | activity change, negative = cytotoxicity | Potency
O=C(NCCC1=CCCCC1)c1ccc2c(=O)n3nc(Nc4ccccc4)sc3nc2c1 | inactive: -11.8% | –
COc1ccc(NC(=O)c2c(NC(=O)COc3ccccc3)sc3c2CCC(C)C3)cc1 (stereo unspecified) | inactive: 6.33% | –
O=C(Nc1ccccc1C(F)(F)F)c1ccc2oc(=O)c(S(=O)(=O)c3ccc(F)cc3)cc2c1 | inactive: 3.41% | –
COc1ccc(-c2noc(CCC(=O)Nc3ccc(C(F)(F)F)cc3)n2)cc1 | inactive: -16.1% | –
Cc1ccccc1CNC(=O)CN1C(=O)CSc2ccc(S(=O)(=O)N(C)C)cc21 | inactive: 26.5% | –
Cc1ccc(NC(=O)CSc2nnc3[nH]c(=O)cc(-c4ccccc4)n23)cc1Cl | inactive: 5.41% | –
COCCCNC(=O)c1cn(CCOC)c(=O)c2c1c1ccccc1n2C | inactive: -1.04% | –
Cc1ccc(NC(=O)CC(C)S(=O)(=O)c2ccc3c(c2)NC(=O)CO3)c(Cl)c1 (stereo unspecified) | inactive: 12.1% | –
CC(C)c1ccc2oc(-c3ccc(NC(=O)c4cccc(Br)c4)cc3)nc2c1 | inactive: 5.05% | –
Cc1ccccc1Cn1c2ccccc2c2cnn(CC(=O)NC3CCC(C)CC3)c(=O)c21 (stereo unspecified) | inactive: 21.8% | –
COc1cc2c(=O)n(CCC(=O)NCC3CCCO3)c(=O)n(CC(=O)Nc3ccc(C)cc3C)c2cc1OC (stereo unspecified) | inactive: 1.47% | –
COc1cc(NC(=O)C(CC(C)C)NS(=O)(=O)c2ccc3c(c2)CCN3C(C)=O)cc(OC)c1 (stereo unspecified) | inactive: 5.98% | –
CCc1ccc(CNCc2c(C(=O)O)n(Cc3ccc(C)cc3)c3cc(C)ccc23)cc1 | inactive: 3.21% | –
CCCCCCSc1nnc2c(n1)OC(C)Nc1ccc(Br)cc1-2 (stereo unspecified) | inactive: 1.4% | –
Cc1c(C(=O)Nc2cccc(-c3nc4ccccc4s3)c2)oc2ccccc12 | inactive: 15.6% | –
CCOc1ccc2nc(N3CCCC(C(=O)Nc4cc(Cl)c(OC)cc4OC)C3)sc2c1 (stereo unspecified) | inactive: -3.64% | –
COc1ccc(CNC(=O)c2ccc(NC(=O)N3CCSc4ccccc43)cc2)cc1 | inactive: 6.51% | –
CCOC(=O)c1ccccc1NC(=O)COc1ccccc1-c1nnc(-c2ccccc2)o1 | inactive: -14.8% | –
Cc1cccc(-n2ncc3c(N4CCCC(C)C4)ncnc32)c1 (stereo unspecified) | inactive: -0.221% | –
C#CCOc1ccc(C2CC(=O)Nc3c2c(C)nn3-c2nc(C)cc(C)n2)cc1 (stereo unspecified) | inactive: -7.32% | –
Cc1ccc(Cn2ccnc2SCC(=O)Nc2nc3ccccc3s2)cc1 | inactive: 10.9% | –

SMILES | activity change, negative = cytotoxicity | Potency
NS(=O)(=O)c1ccc(NC(=O)C(=O)Nc2ccc3nc4n(c(=O)c3c2)CCCCC4)cc1 | inactive: 8.41% | –
O=c1ccc(-c2ccccc2)nn1Cc1ccc(F)cc1Cl | inactive: -11.7% | –
Cc1cccc(NC(=O)CN2C(=O)c3cccc4cccc2c34)c1C | inactive: -2.52% | –
CCCN1CCN(c2ncnc3sc(C(=O)Nc4c(C)cc(C)cc4C)c(C)c23)CC1 | – | active: 25.1 µM
CCOC(=O)N1CCC2(CC1)OC(=O)C(C)=C2C(=O)NCc1cccc(F)c1 | inactive: 11% | –
CCC1CN(S(=O)(=O)c2cc(-c3onc(C)c3C)ccc2C)c2cc(Cl)ccc2O1 (stereo unspecified) | inactive: -0.0797% | –
NC(=O)C1(N2CCCCC2)CCN(C(=O)Nc2ccc(F)cc2F)CC1 | inactive: 3.9% | –
CCc1ccc(C(=O)c2cn(CC(=O)Nc3ccc(OC)cc3)c3cc4c(cc3c2=O)OCO4)cc1 | inactive: 9.76% | –
CC(C)CCN(C(=O)Nc1ccccc1)C(C)c1cccs1 (stereo unspecified) | inactive: 3% | –
Cc1cc(C)c(Cn2c(C3CC(=O)N(c4ccc(F)cc4)C3)nc3ccccc32)c(C)c1 (stereo unspecified) | inactive: 20.7% | –
CC(C)OC(=O)c1c(-c2ccccc2)c(-c2ccccc2)nn(C)c1=O | inactive: -15% | –
CCOC(=O)c1ccc(NC(=O)CCn2ccc(C)n2)cc1 | inactive: -1.28% | –
COc1cccc(NC(=O)CSc2nc(=O)n(Cc3ccncc3)c3c2CCC3)c1 | inactive: -3.94% | –
O=C(NCc1cccs1)C1CCN(C(=O)N2CCOc3ccc(Cl)cc32)CC1 | inactive: -15.1% | –
CC(=O)N1CCc2cc(S(=O)(=O)NC(Cc3ccccc3)C(=O)NCc3ccc(C)cc3)ccc21 (stereo unspecified) | inactive: -12.6% | –
CNS(=O)(=O)c1cn(CC(=O)Nc2ccc(C(C)=O)cc2)cc1S(=O)(=O)NC | inactive: 14.5% | –
Cc1ccc(CN2CCN(C3CCN(C(=O)Nc4ccc(C)cc4Cl)CC3)C(=O)C2=O)cc1 | inactive: 11.4% | –
CC(=O)N1CCc2cc(CNC(=O)c3ccccc3Br)ccc21 | inactive: 10.4% | –
CCCCNS(=O)(=O)c1ccc(C)c(-c2nnc3c4ccccc4c(C)nn23)c1 | inactive: -16.2% | –
